From publication PMC4336329 (PLoS ONE, 2015)
Among all 310,000 compounds or so, about 14,000 (4.5%) showed an effect of 50% or more. The effect is printed as a negative number. This is one part of the list.

What follows are compounds tested against human ether-à-go-go-related gene (hERG) potassium channel (human, UniProt Q12809) (assay: primary screen, population patch clamp on CHO cells stably expressing hERG).
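Note: peak tail current of the secondary pulse compared with the same well before compound.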

human ether-à-go-go-related gene (hERG) potassium channel, sequence (Q12809 whole entry, looked up): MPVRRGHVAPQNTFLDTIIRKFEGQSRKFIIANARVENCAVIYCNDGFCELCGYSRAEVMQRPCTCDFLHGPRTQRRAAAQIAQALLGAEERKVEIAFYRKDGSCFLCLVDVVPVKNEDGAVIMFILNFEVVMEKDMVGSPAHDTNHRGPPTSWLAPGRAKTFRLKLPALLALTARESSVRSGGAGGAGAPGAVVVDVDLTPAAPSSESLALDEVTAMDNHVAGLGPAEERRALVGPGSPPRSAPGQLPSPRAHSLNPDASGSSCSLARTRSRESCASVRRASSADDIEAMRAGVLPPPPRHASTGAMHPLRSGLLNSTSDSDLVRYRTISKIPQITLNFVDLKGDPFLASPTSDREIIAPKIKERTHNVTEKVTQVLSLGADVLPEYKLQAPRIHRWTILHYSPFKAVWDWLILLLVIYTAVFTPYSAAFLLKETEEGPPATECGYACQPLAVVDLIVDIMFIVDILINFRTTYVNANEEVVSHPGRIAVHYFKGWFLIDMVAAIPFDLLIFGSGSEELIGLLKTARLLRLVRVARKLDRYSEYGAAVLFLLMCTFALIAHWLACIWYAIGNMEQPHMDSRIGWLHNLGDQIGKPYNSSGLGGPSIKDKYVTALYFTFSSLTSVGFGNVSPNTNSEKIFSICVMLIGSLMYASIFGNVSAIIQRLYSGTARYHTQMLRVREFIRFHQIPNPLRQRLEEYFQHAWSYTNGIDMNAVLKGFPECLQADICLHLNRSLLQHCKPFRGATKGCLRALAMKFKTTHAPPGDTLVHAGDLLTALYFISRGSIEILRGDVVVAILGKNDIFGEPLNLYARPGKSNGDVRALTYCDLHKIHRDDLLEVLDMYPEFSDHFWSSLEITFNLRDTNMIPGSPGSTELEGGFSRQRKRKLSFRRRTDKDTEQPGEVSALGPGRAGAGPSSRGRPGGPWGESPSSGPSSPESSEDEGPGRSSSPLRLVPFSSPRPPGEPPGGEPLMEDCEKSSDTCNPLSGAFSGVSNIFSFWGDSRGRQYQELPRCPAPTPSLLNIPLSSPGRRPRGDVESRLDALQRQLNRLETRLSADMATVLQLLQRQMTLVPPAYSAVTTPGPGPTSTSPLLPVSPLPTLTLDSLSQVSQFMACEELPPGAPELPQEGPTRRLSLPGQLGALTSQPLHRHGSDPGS

SMILES	hERG current change (%, negative = inhibition) at 10uM [%]
COC(=O)c1cc(Br)c(=O)n(-c2ccc(F)cc2)c1	-63.9
O=C(CSc1nncn1-c1ccccc1)c1c[nH]c2ccccc12	18
COc1ccccc1C(=O)Nc1cc(C)ccc1NC(=O)c1ccco1	-44.4
CC(C)NC(=O)c1ccc(N2CC3CC(C2)c2cccc(=O)n2C3)c([N+](=O)[O-])c1 (stereo not shown)	-3.98
Cc1ccc(OCC(=O)n2nc(C)cc2C)c(Br)c1	-0.529
CC(C)NC(=O)Nc1ccc(Br)cc1Cl	22.9
CC1(C)CC(=O)C=C(NCCCN2CCCC2=O)C1	-3.45
CN(C)S(=O)(=O)c1ccc(C(=O)OCCN=C2NS(=O)(=O)c3ccccc32)cc1	6.78
CCC/S(C)=N/S(=O)(=O)c1ccc(C)cc1 (stereo not shown)	0.0593
Cc1ccccc1NC(=O)CN1CCN(C(=O)c2ccco2)CC1	-29.4
CC(C)(C)c1ccc(C(=O)N2CCC(C(=O)NCCC3=CCCCC3)CC2)cc1	-19.9
N#Cc1ccc(-c2cccnc2)nc1SCC(=O)c1ccccc1	0.311
Cc1cc(C)cc(NC(=O)COc2ccc3c(C)c(Cc4ccccc4)c(=O)oc3c2)c1	5.91
Cc1cc(C)c(-n2c(SCc3nc4ccccc4s3)n[nH]c2=O)c(C)c1	-20.9
COc1ccccc1-c1nnc(SCC(=O)OC(C)C)o1	-8.71
NP(=O)(Oc1ccccc1Cl)Oc1ccccc1Cl	5.71
COc1ccc(C(=O)Nc2cccc(NC(=O)c3cccs3)c2)cc1OC	8.5
O=C(COC(=O)CCc1ccc(S(=O)(=O)N2CCCCC2)cc1)Nc1ccc2c(c1)OCO2	-1.78
Cc1cc(C(=O)Nc2ccc(S(=O)(=O)N3CCCC3)cc2)cs1	-0.109
CN(C)C(=O)CNc1n[nH]c(=S)[nH]c1=O	1.61
COc1ccc(NC(=O)CSc2nnc(NC(=O)C3CCC3)s2)cc1	18.3
Cc1cc(C)cc(NC(=O)c2ccccc2CC[N+](=O)[O-])c1	6.14

SMILES	hERG current change (%, negative = inhibition) at 10uM [%]
CCCC(=O)N(CCN(Cc1ccccc1)C(=O)CCC)Cc1ccccc1	-42.5
COc1ccc([C@H]2/C=C\CN(C(=O)[C@H](Cc3ccccc3)NC(=O)OCC3c4ccccc4-c4ccccc43)CC(=O)N2Cc2ccc(F)cc2)cc1	-24.4
Cn1c(SC2C(=O)CC(C)(C)CC2=O)nnc1-c1ccco1	7.11
COc1ccc(-c2nnc(SCC(=O)Nc3cccc(Cl)c3)o2)cc1	-15.1
O=P(O)(CCc1ccccn1)CN1CCCCC1	-67.6
COc1ccc(S(=O)(=O)N2CCC(C(=O)NCCC(=O)NCc3cccc(OC)c3)CC2)cc1	-4.05
COC(=O)c1cc2c(ccn2-c2ccc(F)cc2)n1CC(C)C	9.33
CN(CC(=O)Nc1ccc(F)cc1)C(=O)c1cccc(S(=O)(=O)N2CCN(c3ccc(F)cc3)CC2)c1	-3.95
CCOC(=O)[C@H]1[C@H]2COc3ccc(OC)cc3[C@@H]2N2C(=O)c3ccc(F)cc3NC(=O)[C@@]12C	-2.29
COc1ccc(C2Nc3ccccc3C(=O)N2c2ccccc2)cc1Cn1cc([N+](=O)[O-])cn1 (stereo not shown)	-37.3
Nc1nnnn1/N=C/c1ccc(Br)cc1	17.4
O=C(CSc1nnc(CNc2ccc(Cl)cc2)n1Cc1ccccc1)NCc1ccco1	-15.6
CN1CCN(C(=O)c2ccc(COc3cc(Cl)ccc3Cl)o2)CC1	-46.1
COc1ccc2nc3ccccc3nc2c1NC(=O)c1ccc(Br)cc1	12
COc1ccc(C(=O)NCCc2cc3ccc(C)c(C)c3[nH]c2=O)cc1OC	-23
O=C(Cn1c2c(sc1=O)C1c3ccccc3OCC1CS2)Nc1ccc(Cl)c(Cl)c1 (stereo not shown)	5.07
COc1ccccc1/C=C(/C(=O)NCCCn1ccnc1)c1ccccc1	-15.8
COc1ccc(CN(CC(=O)NC2CCCC2)C(=O)CN2C(=O)COc3ccccc32)cc1	-37.9
CCn1ccc(C(=O)Nc2ncc(C)s2)n1	3.3
CCOC(=O)C1=C(O)C(=O)N(C2CCCCC2)C1	6.01
COC(=O)c1ccc(NC(=O)C2CC3CCC2C3)cc1 (stereo not shown)	-6.77
CCOC(=O)C1=C(N)OC2=C(C(=O)CCC2)C12C(=O)Nc1ccccc12 (stereo not shown)	-6.27

SMILES	hERG current change (%, negative = inhibition) at 10uM [%]
CC(=O)Nc1ccc(S(=O)(=O)N2CCC(C(=O)O)CC2)cc1	6.74
CN1C(=O)C(O)N=C(c2ccccc2)c2ccccc21 (stereo not shown)	5.26
CC(Oc1ccc2c(-c3ccccc3)cc(=O)oc2c1)C(=O)N1CCC[C@@H]1C(N)=O (stereo partly shown)	1.14
Clc1nc2ccccc2cc1-c1nnn(-c2ccccc2Br)n1	-2.47
CSc1ccc(/C=N/NC(=O)CN2CCN(Cc3ccc(Cl)cc3)CC2)cc1	-35.1
O=C(Oc1cccc(-n2cnnn2)c1)c1ccco1	6.57
CCOC(=O)c1c(NC(=O)CSc2nnc(C)s2)sc2c1CCC(CC)C2 (stereo not shown)	6.07
O=C(C[n+]1cccc(Br)c1)c1ccccc1.[Br-]	11.7
CCn1c(=O)c(=O)n(CC)c2cc(S(=O)(=O)N3CCc4ccccc43)ccc21	-28.9
COc1ccc(-c2c(C#N)c(SCc3c(C)noc3C)nc3c2C(=O)CC(C)(C)C3)cc1	5.46
Nc1nc(-c2ccc(Oc3ccccc3)cc2)c(CC(=O)O)s1	9.12
COc1cc(/C=C2\SC(N)=NC2=O)cc(Br)c1O	7.66
C=CCn1c2[n+](c3ccccc3c1=O)CCCCC2.[I-]	-3.03
N=c1c(S(=O)(=O)c2ccccc2)cc2c(=O)n3ccccc3nc2n1CCCN1CCOCC1	-65.9
Cc1ccc(C)c(N2CCN(C(=O)c3ccc(CS(=O)(=O)c4ccccc4C)o3)CC2)c1	-25.5
Cc1nc2c(sc(=S)n2Cc2ccco2)c(=O)n1CC(=O)Nc1cc(F)ccc1F	13.2
Cc1cc(C)nc(NC(=O)Cc2cccs2)n1	0.474
CC1CCN(CCCCOc2ccc(Br)cc2)CC1	-69.4
CCOC(=O)c1cnc2cc(C)nn2c1C	-7.37
Cc1ccc(C(=O)Nc2cc3c(cc2N2CCCCC2)n(C)c(=O)n3C)cc1	11.8
CCc1nc(Nc2ccncc2)c2oc3ccccc3c2n1.Cl	-58.5
CCCc1cc(=O)[nH]c(SCC(=O)N(Cc2ccccc2)C(C)C)n1	26.8

SMILES	hERG current change (%, negative = inhibition) at 10uM [%]
Cc1ccc(O)c(CC(C)C)n1	7.01
COCCCNC(=O)c1ccc(CS(=O)(=O)c2ccccc2C)o1	7.74
O=C(NCc1ccccc1)C1CCCN(S(=O)(=O)c2ccc(-n3cnnn3)cc2)C1 (stereo not shown)	2.94
C=CCn1c(O)c(C(CC)=Nc2cccc(C(=O)O)c2)c(=O)[nH]c1=O	11.6
CC1CCN(S(=O)(=O)c2ccc(C(=O)N3CCOCC3)cc2)CC1	5.78
C/C(N)=C(/C#N)C(=O)COC(=O)c1cc2c(s1)CCC(C)C2 (stereo not shown)	9.17
O=C(/C=C1\SC(=O)N(CC(=O)Nc2ccc(F)cc2)C1=O)Nc1ccc(Cl)cc1	10.8
CCN1C(=O)CS/C1=N\c1nccs1	6.88
Cc1cccc(NS(=O)(=O)c2ccc(C(=O)NCCCN3CCOCC3)cc2)c1C	-15.6
CCCc1ccc(S(=O)(=O)N2CCN(Cc3ccco3)CC2)cc1	-38.6
CN(C)C(=O)NC1CCCCCCCCCCC1	-5.65
CCOCCCNC(=O)CS(=O)(=O)Cc1nc(-c2cccc(OC)c2)oc1C	-2.06
O=C(CCc1ccccc1)NNC(=S)NC(=O)c1ccc(Cl)cc1	8.15
O=C(O)CCN(Cc1ccccc1)S(=O)(=O)c1ccc(Cl)cc1F	7.65
Cc1cc(C)n2nc(C(=O)OCC(=O)N(C)C3CCCCC3)nc2n1	4.17
CCOC(=O)C1C(C(=O)OCC)C1(c1ccccc1)c1ccccc1 (stereo not shown)	0.621
CCN(CC)S(=O)(=O)c1cc(NC(=O)C2=COCCO2)ccc1Cl	-8.41
CC1(C)Cc2c(sc(/N=C/N3CCCC3)c2C#N)C(C)(C)N1	-19.2
COc1ccccc1OCCSc1nc(C)c(Cc2ccccc2)c(=O)[nH]1	22.8
Cc1ccc(-c2csc3ncnc(-n4cnc5ccccc54)c23)cc1	-25.6
CC(C)(C)c1ccc(S(=O)(=O)NCc2ccc(C(=O)N3CCOCC3)cc2)cc1	-0.293
Cc1ccc(C)c(NC(=S)NNC(=O)c2csc(C(C)C)c2)c1	-1.77
